From EP0452101B1, “Spiro bridged and unbridged heterocyclic compounds” (ISRAEL INSTITUTE FOR BIOLOGICAL RESEARCH, priority 1990, dated 1991)
Like-named read-outs stand apart in the source and are kept apart here.

Assays:
[1] = tested on: guinea-pig ileum preparation; details: for EPMRACh: relative to ACh; for IC50: antagonist
[2] = tested on: guinea-pig ileum preparation; experiment: tissue or blood; details: Cavia porcellus
[3] = at the highest conc. tested (column Highest conc.)
[4] = at the lowest conc. tested (column Lowest conc.)

Structure (SMILES)	Remarks [1]	agonistic and antagonistic activities [1]	intensity of contractions [1, 4]	EC50 [2] [nM]	also measured
CCC1=NCC2(CN3CCC2CC3)O1 (racemic) [AF123, 2-Ethyl spiro(1,3 oxazoline 5,3')quinuclidine]	Blocked reversibility ACh-induced contractions	antagonist	-		intensity of contractions [1, 3]: -
CCC1=NC2(CCN(C)CC2)CO1 [Example 8, 1-Methylpiperidine-4-spiro-4'-(2'-ethyl-1',3'-oxazoline)]	Full agonist; contractions were blocked by atropine		+		
CC1=NCC2(CN3CCC2CC3)O1 (racemic) [AF125, 2-Methyl-spiro(1,3 oxazoline-5,3')quinuclidine]				1300	EPMRACh [1]: about 14
CC1OC2(CS1)CN1CCC2CC1 (stereo not drawn) [AF102B, cis-2-methylspiro(1,3-oxathiolane-5',3)quinuclidine, reference compound]					EPMRACh [1]: 50-100
CC1=NC2(CCN(C)CC2)CO1 [AF151, 1-methylpiperidine-4-spiro-4'-(2'-methyl-1',3'-oxazoline)]		full muscarinic agonist		3000	
CC1=NCC2(CCN(C)CC2)O1 [AF150, 2-Methyl-spiro(1,3-oxazoline-5,4')-1'-methylpiperidine]		full muscarinic agonist		800	maximal contraction of the ileum ([1]; ACh=100%): 130%
c1ccc(C2=NCC3(CN4CCC3CC4)O2)cc1 (centres unmarked) [AF125(Ph), 2-Phenyl-spiro(1,3-oxazoline-5,3')quinuclidine]	Antagonist	antagonist	-		IC50 [1]: 700 nM; IC50 ([1]; listed as 15): 900 nM; intensity of contractions [1, 3]: -
NC1=NCC2(CN3CCC2CC3)O1 (centres unmarked) [AF125(N), 2-Amino-spiro(1,3-oxazoline-5,3')quinuclidine]	Full agonist; contractions were blocked by atropine	active as an agonist	+		
